Screen size: about 48,000 compounds; about 1,200 (2.5%) were called active. Roughly 2% stayed inconclusive and do not appear here.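 The calls were made as follows: active = activation of at least 60% and not above a set upper limit (about 1 call in 100 departs from these limits); inconclusive = activation of 40% to 60%, or above that upper limit; inactive = activation under 40%.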 The list shows a part of the results.
Each compound was assayed against Probable G-protein coupled receptor 32 (Homo sapiens) (UniProt O75388) (assay: qHTS for Agonists of Human Resolvin D1 Receptor DRV1). Conditions: CHO-K1 GPR32 beta-arrestin PathHunter luminescence, 90 min; at 76.9 µM; active compounds read high; zero percent set by DMSO-only wells.
Chain of UniProt O75388 (O75388 whole entry, looked up, the tested form may be a part): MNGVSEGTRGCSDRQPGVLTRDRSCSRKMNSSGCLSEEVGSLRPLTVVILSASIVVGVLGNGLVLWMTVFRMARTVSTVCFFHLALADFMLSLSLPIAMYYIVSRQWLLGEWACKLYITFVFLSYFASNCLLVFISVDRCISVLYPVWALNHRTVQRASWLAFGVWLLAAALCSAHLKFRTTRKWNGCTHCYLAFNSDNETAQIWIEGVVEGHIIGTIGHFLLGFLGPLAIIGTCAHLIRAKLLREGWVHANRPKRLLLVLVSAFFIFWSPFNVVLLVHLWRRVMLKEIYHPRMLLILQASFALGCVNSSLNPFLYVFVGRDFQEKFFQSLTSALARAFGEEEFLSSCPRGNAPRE
How it was run: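 Agonism was scored as beta-arrestin recruitment to ProLink-fused GPR32 in stably transfected CHO-K1 cells, giving a chemiluminescent beta-Gal signal; compounds were incubated 90 min at 37 °C.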
`CCOC(=O)c1c(NC(=O)COc2cccc(C)c2C)sc2c1CCCCC2` was tested, and the activation was inactive: 13.2%.
In the case of `Cc1ccccc1Nc1c(-c2ccccc2O)nc2sccn12`, the activation was inactive: -30.7%.
With `Cc1nn(C)c2c1c(-c1ccccc1)cc(=O)n2Cc1c(F)cccc1Cl` the activation was inactive: -19.9%.
In the case of `O=C(c1cc(-c2ccc(Cl)cc2)on1)N(Cc1ccc(F)cc1)Cc1ccco1`, the activation was inactive: -7.73%.
For `O=C1c2oc3ccccc3c(=O)c2C(c2cccc(O)c2)N1Cc1ccc(F)cc1` (centres undefined), the activation was inactive: -18.6%.
With `CC(C)Sc1ncc(Cl)c(C(=O)Nc2c(C(=O)Nc3ccccc3)oc3ccccc23)n1` the activation was inactive: 9.65%.
In the case of `CCOc1ccc(N(CC(=O)Nc2ccc3c(c2)OCO3)S(=O)(=O)c2ccccc2)cc1`, the activation was inactive: -13.6%.
`CCOC(=O)Cc1ccc(NC(=O)N2CCC(CN3CCC(C)CC3)CC2)cc1` was tested, and the activation was inactive: 4.51%.
For `COc1ccc(N(C(=O)c2ccc(C)cc2)S(=O)(=O)c2ccc(Cl)cc2)cc1`, the activation was inactive: -9.23%.
In the case of `CCN(c1ccccc1)S(=O)(=O)c1nnc(NC(=O)C(C)Oc2ccccc2)s1` (centres undefined), the activation was inactive: 5.13%.
For `CCc1ccc(NS(=O)(=O)c2ccc3[nH]cc(C(=O)N4CCCCCC4)c(=O)c3c2)cc1`, the activation was inactive: 16%.
For `O=C1CN(C(=O)c2ccc(S(=O)(=O)N3CCCC3)cc2)C(c2ccc(F)cc2)c2cc(F)ccc2N1` (centres undefined), the activation was inactive: -7.74%.
With `CCc1cccc(NC(=O)c2sc3nc[nH]c(=O)c3c2C)c1` the activation was inactive: 8.38%.
In the case of `COc1cc(C2C(C(=O)Nc3ccc(C)cc3C)=C(C)Nc3nc(SCc4ccccc4)nn32)cc(OC)c1OC` (centres undefined), the activation was inactive: 9.1%.
With `Cc1ccc2oc3c(c(=O)c2c1)C(c1cccc(O)c1)N(CCCN1CCOCC1)C3=O` (centres undefined) the activation was inactive: 14.4%.
With `Cc1ccc(CNC(=O)c2cnn3c(C)c(Cc4c(F)cccc4Cl)c(C)nc23)cc1` the activation was inactive: -22.8%.
With `Cc1cccc(-c2nnc(SCC(=O)NC3CCCCC3)o2)c1` the activation was inactive: 0.476%.
`CCOc1ccc(CCNC(=O)c2ccc(C)c(-n3c(C)nc4cccnc43)c2)cc1OCC` was tested, and the activation was inactive: -13.1%.
`Nc1[nH]c(=O)ncc1F` was tested, and the activation was inactive: -0.657%.
With `CCN(Cc1ccccc1)C(=O)c1cc2ccc3cccnc3c2[nH]1` the activation was inactive: 8.12%.
`CCOc1ccccc1NC(=O)c1cc2ccc3cccnc3c2[nH]1` was tested, and the activation was inactive: 0.957%.
With `CCOc1ccc(C(=O)Nc2cc(-c3ccccc3)no2)cc1` the activation was inactive: -65.6%.
`Cc1cc(Br)ccc1NC(=O)CN1C(=O)c2cccnc2Sc2ccccc21` was tested, and the activation was inactive: -2.52%.
In the case of `COc1ccc(C(=O)NCC(c2cccnc2)N2CCN(c3ccccc3F)CC2)cc1OC` (centres undefined), the activation was inactive: -2.45%.
`COC(=O)c1c(C)sc(-c2c(-c3ccc(F)cc3)[nH]c3[nH]c(=O)[nH]c(=O)c23)c1O` was tested, and the activation was inactive: -30%.
`CCC(=O)O[C@]1(C(=O)SCF)[C@H](C)C[C@H]2[C@@H]3C[C@H](F)C4=CC(=O)C=C[C@]4(C)[C@@]3(F)[C@@H](O)C[C@@]21C` was tested, and the activation was inactive: 2.08%.
In the case of `CC(C)(C)NCC(O)COc1ccccc1OCC1CCCO1` (centres undefined), the activation was inactive: -8.75%.
In the case of `CCCc1nn2c(=O)cc(COC(=O)c3ccccc3NC(=O)C3CCCCC3)nc2s1`, the activation was inactive: -11.8%.
For `CCC(=O)N1CCc2cc(S(=O)(=O)CCC(=O)NCc3ccccc3Cl)ccc21`, the activation was inactive: -5.19%.
For `COc1ccc(CCNC(=O)CCc2c(C)nc3c(-c4ccc(F)cc4)c(C)nn3c2C)cc1OC`, the activation was inactive: 12.9%.
For `CCc1ccc(NC(=O)CN(c2ccc(C)cc2)S(=O)(=O)c2c(C)nn(C)c2C)cc1`, the activation was inactive: -14.9%.
For `COCCCNC(=O)N1CCN(c2nnc(C)c3c(C)n(-c4ccc(Cl)cc4)nc23)CC1`, the activation was inactive: 8.25%.
In the case of `Cc1ccc(-n2c(SCc3nc(-c4ccc(Cl)cc4)no3)nnc2-c2ccncc2)cc1`, the activation was inactive: 8.23%.
In the case of `CC1=C(C(=O)OC2CCCCCC2)C(c2ccccc2Cl)CC(=O)N1` (centres undefined), the activation was inactive: -8.15%.
For `COc1ccc(Cn2c(C(=O)O)c(CNCCc3cccs3)c3ccc(OC)cc32)cc1`, the activation was inactive: 39%.
In the case of `CCOc1cccc(CC(=O)N2CCc3c([nH]c4ccccc34)C2c2ccc(OC)cc2)c1OCC` (centres undefined), the activation was inactive: -28.2%.
With `Cc1ccccc1CN1C(=O)c2ccccc2S(=O)c2ccc(C(=O)NCc3ccccc3)cc21` (centres undefined) the activation was inactive: -30.7%.
`COc1cccc(CNCCCSc2nnnn2C)c1` was tested, and the activation was inactive: -0.717%.
`COc1ccc(-c2c(C)nn3c(C(F)(F)F)cc(C)nc23)cc1OC` was tested, and the activation was inactive: -26.1%.
For `Cc1oc2ncn(C)c(=O)c2c1C(=O)N1CCN(c2ccc(Cl)cc2)CC1`, the activation was inactive: -9.82%.
`Cc1ccc2c(c1)N(S(=O)(=O)c1ccc3c(c1)NC(=O)CC(=O)N3)CCO2` was tested, and the activation was inactive: -8.05%.
`Cc1ccc2c(c1)N(CC(=O)NCCCN1CCCCC1C)C(=O)c1cccnc1O2` (centres undefined) was tested, and the activation was inactive: -5.9%.
For `Cc1ccc(-n2c(=O)c3ccc(C(=O)NCc4ccco4)cc3n(Cc3ccc(Cl)cc3)c2=O)cc1`, the activation was inactive: -3.64%.
For `Cc1ccccc1CNCCSc1nnnn1-c1ccccc1`, the activation was inactive: -8.34%.
`NCCCS(=O)(=O)O` was tested, and the activation was inactive: 3.17%.
In the case of `CCOC(=O)N1CCN(Cc2nc3cc(NC(=O)c4ccccc4OC)ccc3n2C(C)C)CC1`, the activation was inactive: -8.13%.
In the case of `COc1ccc(-n2c(=O)c3ccc(C(=O)NCc4ccc(C)cc4)cc3n(Cc3ccc(C)cc3)c2=O)cc1`, the activation was inactive: -6.42%.
With `COc1ccc(CNC(=O)c2nc(S(=O)(=O)Cc3ccccc3)ncc2Cl)cc1` the activation was inactive: -23.2%.
In the case of `COc1ccc(CNC(=O)CCc2c(C)c3cc4c(C)coc4cc3oc2=O)cc1`, the activation was active: 68%.
In the case of `Cc1ccc(-n2nc3c(=O)n(CC(=O)NCc4ccco4)nc(C)c3c2C)cc1`, the activation was inactive: -5.95%.
`Cc1nc2nc(SCC(=O)N(Cc3ccccc3)C(C)C)nn2c(C)c1Cc1ccccc1Cl` was tested, and the activation was inactive: -35.8%.
In the case of `CSc1ccc(CCNc2ncnc3onc(-c4ccc(Cl)cc4)c23)cc1`, the activation was inactive: -11.2%.
`Cc1cc(C)c2sc(N3CCN(C(=O)C4CC4)CC3)nc2c1` was tested, and the activation was inactive: 32.6%.
With `Cc1cc(C)c(NC(=O)Cn2c(=O)n(-c3ccc(F)cc3)c(=O)c3c(C)c(C(=O)N(C)C)sc32)c(C)c1` the activation was inactive: -12.2%.
For `COc1ccc(Oc2nc3c(C)cccn3c(=O)c2/C=C(\C#N)c2nc3ccccc3[nH]2)cc1`, the activation was inactive: -24.8%.
For `CCc1ccc2ncc3c(-c4ccc(C)cc4)nn(CC(=O)Nc4ccc(C)cc4)c3c2c1`, the activation was inactive: -4.44%.
With `COc1ccc(C(=O)c2sc(Nc3cc(Cl)ccc3C)nc2N)cc1OC` the activation was inactive: 5.49%.
With `COC(=O)c1cc2occc2n1Cc1nc(-c2cccc(Br)c2)oc1C` the activation was inactive: -12.5%.
For `CCCOc1cccc(C2c3c(oc4ccc(F)cc4c3=O)C(=O)N2Cc2ccc3c(c2)OCO3)c1` (centres undefined), the activation was inactive: 1.24%.
`Cc1nc(-n2nc(C)c(Cc3ccc4c(c3)OCO4)c2C)sc1C(=O)Nc1ccc(Cl)cc1` was tested, and the activation was inactive: -6.19%.
`Cc1ccc2nc(N3CCN(c4ccccc4F)CC3)c3nnnn3c2c1` was tested, and the activation was inactive: 3.06%.
`COc1ccc(CC(=O)NCc2ccc3c(c2)CCN3C(=O)c2cccc(C)c2)cc1` was tested, and the activation was inactive: -13.4%.
With `Cc1ccc(-n2cnc3cc(C(=O)NCc4ccccc4Cl)ccc32)c(C)c1` the activation was inactive: -16.5%.
`O=C(O)C(Cc1cc(I)c(O)c(I)c1)c1ccccc1` (centres undefined) was tested, and the activation was inactive: 16.5%.
In the case of `CCCCN(Cc1ccco1)C(=O)Cn1ncc2c([nH]c3ccccc32)c1=O`, the activation was inactive: 6.33%.
For `CN1CCSc2ccc(C(=O)NCc3ccccc3)cc21`, the activation was inactive: -5.2%.
For `O=C(c1ccco1)n1nc(-c2ccc(Cl)cc2)nc1NCc1ccc(F)cc1`, the activation was inactive: -0.765%.
`Cc1cccc(Cn2cccc2CNS(=O)(=O)c2ccc(C)c(C)c2)c1` was tested, and the activation was inactive: -9.97%.
In the case of `Cc1ccc(NC(=O)Cn2c(=O)n(CCC(=O)NCc3ccccc3Cl)c(=O)c3ccccc32)c(C)c1`, the activation was inactive: -0.352%.
For `Cc1cccc(NS(=O)(=O)c2ccc3nc(-c4ccccc4)[nH]c3c2)c1C`, the activation was active: 86.5%.
In the case of `CCOC(=O)c1scc(-c2ccc(C)cc2)c1S(=O)(=O)Nc1ccc(OC)c(Cl)c1`, the activation was inactive: -23.7%.
In the case of `COc1ccc(C2C(C(=O)Nc3ccccc3)=C(C)Nc3nc(-c4ccccc4Cl)nn32)cc1OC` (centres undefined), the activation was inactive: -6.52%.
With `CCOCCCNc1nc2cc(OC)c(OC)cc2c2nc(-c3ccccc3)nn12` the activation was inactive: 19%.
With `O=C(Nc1ccc2nc(SCCOc3ccccc3)sc2c1)c1ccc2c(c1)OCO2` the activation was inactive: 22.4%.
In the case of `Clc1ccccc1Nc1ncnc2c1nc1n2CCCCC1`, the activation was inactive: 49.1%.
For `Cc1cccc(Cn2c(=O)n(CC3CCC(C(=O)N4CCC(C)CC4)CC3)c(=O)c3sccc32)c1` (centres undefined), the activation was inactive: -5.83%.
With `O=C(CSc1cn(CC(=O)N2CCCC2)c2ccccc12)Nc1ccccc1C(F)(F)F` the activation was inactive: -21.7%.
With `COc1cc2[nH]c(=O)n(CCCCCC(=O)N3CCN(c4ccc(Cl)cc4)CC3)c(=O)c2cc1OC` the activation was inactive: -1.71%.
For `Cc1nc2cc(-c3ccccc3)nn2c(C)c1CCC(=O)NCc1cccc(Cl)c1`, the activation was inactive: 22.6%.
For `Cc1ccc(CNC(=O)CN(c2cc(C)cc(C)c2)S(=O)(=O)c2c(C)noc2C)cc1`, the activation was inactive: 11.7%.
`O=C(Nc1cccc(Br)c1)c1cc(-c2ccc3c(c2)OCCO3)on1` was tested, and the activation was inactive: 28.3%.
`Cc1nc2ccn(Cc3cccs3)c(=O)c2cc1C(=O)N1CCN(c2ccccc2)CC1` was tested, and the activation was inactive: -19%.
`COC(=O)c1ccccc1NC(=O)c1ccc2c(Cl)c3c(nc2c1)CCCC3` was tested, and the activation was inactive: 25.4%.
`COc1ccc2c(c1)cc1c(=O)n(CC(=O)NCCc3ccccc3)nc(C)n12` was tested, and the activation was inactive: -4.05%.

Source: PubChem BioAssay AID1346428 (National Center for Advancing Translational Sciences (NCATS), 2018)
Also: 0% is about no effect.
